Results reported in PubChem BioAssay AID360 (National Center for Advancing Translational Sciences (NCATS), 2006).
Among all 48,000 compounds or so, about 550 (1.1%) were called active. Another 4% or so got no clear call; they are omitted. Rule as the data show it: active = potency below about 15 µM; inconclusive = mostly about 16 µM to 33 µM; inactive = weaker than that. This is one part of the list.

biological target: Lysosomal acid glucosylceramidase (Homo sapiens) (UniProt P04062); test: Glucocerebrosidase; conditions: purified enzyme, resorufin glucoside fluorescence (screen aimed at inhibitors), 20 min; series mostly up to 77 µM;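 also: the screen sought inhibitors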
Chain of UniProt P04062 (P04062 whole entry, looked up): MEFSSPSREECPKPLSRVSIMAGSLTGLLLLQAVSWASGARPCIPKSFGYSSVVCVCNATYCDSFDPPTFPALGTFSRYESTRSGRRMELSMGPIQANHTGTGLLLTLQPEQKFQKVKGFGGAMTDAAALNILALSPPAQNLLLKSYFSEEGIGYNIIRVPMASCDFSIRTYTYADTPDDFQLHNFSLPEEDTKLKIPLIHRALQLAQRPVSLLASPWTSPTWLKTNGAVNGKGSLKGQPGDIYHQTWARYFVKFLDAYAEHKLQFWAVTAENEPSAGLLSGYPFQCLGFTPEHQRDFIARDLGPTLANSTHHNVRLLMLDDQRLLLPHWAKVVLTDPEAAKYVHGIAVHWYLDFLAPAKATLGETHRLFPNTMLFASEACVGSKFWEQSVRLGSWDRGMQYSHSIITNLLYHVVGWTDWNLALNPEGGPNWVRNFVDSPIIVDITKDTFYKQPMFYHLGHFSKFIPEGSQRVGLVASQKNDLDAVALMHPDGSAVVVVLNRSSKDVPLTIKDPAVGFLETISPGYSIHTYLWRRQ
Method in brief: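 Compounds titrated against 0.2 nM normal enzyme, 30 uM resorufin beta-D-glucopyranoside substrate, citrate/phosphate buffer with taurocholate and tween-20, pH 5.9. Reaction ran 20 min at room temperature; fluorescence (Ex 548/Em 600) gave AC50.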
Potency is read from the fitted curve at half-maximal effect.

Potency, inactive:
COc1ccc(C(=O)N(Cc2ccco2)Cc2cc3cc(C)ccc3[nH]c2=O)cc1OC > 76.9 µM, COc1ccc(CC2S/C(=C(\C#N)C(=O)NCc3ccco3)N(c3ccc(C)cc3)C2=O)cc1 (stereo unspecified) > 76.9 µM, Cc1nnc(SCCn2c(N3CCC(C)CC3)nc3c2c(=O)[nH]c(=O)n3C)s1 > 76.9 µM, O=C(OCC(=O)N1CCN(C(=O)c2ccco2)CC1)c1ccccc1OCc1ccc(Cl)cc1 > 76.9 µM, CCc1ccccc1NC(=O)c1ccc(F)c(S(=O)(=O)N2CCC(C(N)=O)CC2)c1 > 76.9 µM, CCN(C(=O)CSc1nnc(-c2ccccc2Cl)n1C1CCCC1)C1CCS(=O)(=O)C1 (stereo unspecified) > 76.9 µM, CC1=C(C#N)C(Nc2cccc(C)n2)(C(F)(F)F)C(=O)N1 (stereo unspecified) > 76.9 µM, NC(=O)C1CCCN(C(=O)NC2CCCCC2)C1 (stereo unspecified) > 76.9 µM, C/C(N)=C(/C#N)C(=O)CSc1nnc(NC(C)C)s1 > 76.9 µM, Cc1ccc(-c2nn3c(-c4ccco4)nnc3c3ccccc23)cc1S(=O)(=O)N1CCOCC1 > 76.9 µM, O=C(CSc1nc2sc3c(c2c(=O)n1Cc1ccco1)CCC3)N1CCc2ccccc21 > 76.9 µM, CCn1c(SCc2cccc(C(F)(F)F)c2)nnc1-c1ccco1 > 76.9 µM, Cc1cccc(NC2=NC(C)(C)N=C(N)N2)c1C > 76.9 µM, Cc1cccc(OCCCn2ccnc2)c1 > 76.9 µM, CCC(OC(=O)c1cccs1)C(=O)NCc1ccc2c(c1)OCO2 (stereo unspecified) > 76.9 µM, CC(C)(C)c1nnc2sc(SC/C(O)=C(\C#N)c3nc4ccccc4[nH]3)nn2c1=O > 76.9 µM, CCS(=O)(=O)c1ccc(NC(=O)c2ccccc2Cl)c(O)c1 > 76.9 µM, O=C(Nc1cc(C(=O)N2CCOCC2)ccc1N1CCCC1)c1cccs1 > 76.9 µM, COc1ccc(C2(O)CC3CCC(C2)N3c2nc(C)cc(C)c2C#N)cc1 (stereo unspecified) > 76.9 µM, CCNc1ccc(C(=O)OCC)cc1NC(=O)c1cccc(S(=O)(=O)N2CCOCC2)c1 > 76.9 µM, CN(C)S(=O)(=O)N1CCN(S(=O)(=O)N(C)C)CC1 > 76.9 µM, Cn1nnc2cc(C(=O)NCc3ccc4c(c3)OCO4)ccc21 > 76.9 µM, Cc1ccccc1NC(=O)Cn1cccc1 > 76.9 µM, CN(C)S(=O)(=O)c1ccc(C(=O)NCc2cccs2)cc1 > 76.9 µM, O=C(Cn1nc(-c2ccccc2F)ccc1=O)NCc1ccc2c(c1)OCO2 > 76.9 µM, CCn1c(Cc2cccs2)nnc1SCC(=O)Nc1ccc(OC)c(OC)c1 > 76.9 µM, CCn1c(N)c(C(N)=O)sc1=S > 76.9 µM, C(=C\c1ccccc1)/CSc1nnc(-c2ccncc2)n1Cc1ccco1 > 76.9 µM, CCOC(=O)N1CCN(C(=O)CCNS(=O)(=O)c2cc(Br)cnc2N)CC1 > 76.9 µM, O=C(CN1C(=O)CNC1=O)Nc1cccc(C(F)(F)F)c1 > 76.9 µM, COc1ccc(N=c2oc3cc(O)ccc3cc2C(=O)NCC2CCCO2)c(OC)c1 (stereo unspecified) > 76.9 µM, CC(C)CC(=O)NCC(C)NC(=O)CC(C)C (stereo unspecified) > 76.9 µM, CCn1c(CC(C)C)n[nH]c1=S > 76.9 µM, Cc1cc(C)nc(SCc2nnc(SCc3ccccc3Cl)o2)n1 > 76.9 µM, COC(=O)c1ccc(COC(=O)C23CC4CC(CC(O)(C4)C2)C3)o1 > 76.9 µM, COc1ccc(S(=O)(=O)N(Cc2cccs2)C2CCCC2)cc1, CC(=O)c1c(O)cc(C)n(Cc2ccccc2)c1=O > 76.9 µM, COc1ccccc1NC(=O)CCN1CCN(CCC(=O)Nc2ccccc2OC)CC1 > 76.9 µM, COC(=O)c1sccc1NC(=O)C1CC=CCC1C(=O)O (stereo unspecified) > 76.9 µM, CCOC(=O)C1CCN(C(=O)c2ccc3c(c2)OCO3)CC1 > 76.9 µM, O=C(O)c1ccc(CSCc2ccccc2F)o1 > 76.9 µM, CCn1c(SCC(=O)Nc2cc(C)on2)nnc1-c1ccc(S(=O)(=O)N2CCCC2)cc1 > 76.9 µM, Cc1c(C(=O)OCC(=O)c2ccc3c(c2)OCCO3)oc2ccccc12 > 76.9 µM, CCOC(=O)N1CCN(C(=O)CSCC(=O)N=c2sc3ccccc3n2C)CC1 > 76.9 µM, O=C(COc1ccc2ccc(=O)oc2c1)Nc1ccc2c(c1)OCCO2 > 76.9 µM, CCOC(=O)COc1ccc(C2NC(C(=O)O)CS2)cc1 (stereo unspecified) > 76.9 µM, COCCN1Cc2cccc(C(=O)Nc3c(C)cccc3C)c2C1=O > 76.9 µM, COc1ccc(CN2C(=O)c3ccccc3C2C(=O)NC2CCCC2)c(OC)c1 (stereo unspecified) > 76.9 µM, CCOC(=O)c1ccc(N2C(=O)CC(N3CC(C)OC(C)C3)C2=O)cc1 (stereo unspecified) > 76.9 µM, COc1ccccc1C1C(C(=O)c2sc(C)nc2C)=C(O)C(=O)N1CCN1CCOCC1 (stereo unspecified) > 76.9 µM, CNC(=O)CN(c1cc(C)ccc1C)S(C)(=O)=O > 76.9 µM, Cc1nc(C)c(NC(=O)N2CCc3ccccc32)cc1NC(=O)N1CCc2ccccc21 > 76.9 µM, CCSC1=NC(=O)/C(=C2/C=Cc3ccccc3N2CC)S1 > 76.9 µM, Cc1cc(=O)n(CCO)c(O)c1C#N > 76.9 µM, c1ccc2c(c1)OCC(c1nnc3sc(-c4cnccn4)nn13)O2 (stereo unspecified) > 76.9 µM, CN(C)S(=O)(=O)N1CCN(C(=O)N2CCCCC2)CC1 > 76.9 µM, C=CCNC(=O)c1oc2ccc(S(=O)(=O)N(CC)CC)cc2c1C > 76.9 µM, Cc1cc(C(=O)CSc2nnc(-c3ccccc3)n2Cc2ccc3c(c2)OCO3)c(C)n1C > 76.9 µM, CCCn1nnc(NC(=O)c2ccccc2Br)n1 > 76.9 µM, CC1Cc2ccccc2N1C(=O)CSc1nnc(CSc2ncccn2)n1C (stereo unspecified) > 76.9 µM, CN1C(=O)c2cccc3c(S(=O)(=O)NCc4ccco4)ccc1c23 > 76.9 µM, CCOC(=O)/C=C1\CC(=O)Nc2cc(C)c(C)cc2N1 > 76.9 µM, COC(=O)CSc1nnc(-c2cccnc2)n1-c1cccc(OC)c1 > 76.9 µM, CCCN(CCC)CCCNC(=O)c1cc2cc3ccc(OC)cc3nc2o1 > 76.9 µM, CC1CCC2(CC1)NC(=O)N(CC(=O)NC(=O)NC1CCCC1)C2=O (stereo unspecified) > 76.9 µM, O=C(NCc1ccc2c(c1)OCO2)c1c[nH]c2ccc(S(=O)(=O)N3CCOCC3)cc2c1=O > 76.9 µM, O=C(CSc1ccc(Cl)cc1)OCc1nnc(-c2ccccc2)o1 > 76.9 µM, CCCCN(CC)S(=O)(=O)N1CCC(C(=O)NCCCN2CCOCC2)CC1 > 76.9 µM, NC(=O)c1ccc(-n2nnnc2SCc2ccc(F)cc2)cc1 > 76.9 µM, CCCn1c(SCC(=O)Nc2ccccc2CC)nnc1C(C)C > 76.9 µM, O=S(=O)(c1ccc2c(c1)nc(COc1ccc(Cl)cc1)n2CC1CCCO1)N1CCOCC1 (stereo unspecified) > 76.9 µM, COc1ccc(CCNc2cc(=O)[nH]c(N)n2)cc1 > 76.9 µM, CCn1c(CNC(=O)COc2c(C)cccc2C)nnc1SCC(=O)Nc1nccs1 > 76.9 µM, CCn1c(SCC(=O)N2CCN(S(=O)(=O)c3ccccc3)CC2)nnc1-c1cccs1 > 76.9 µM, c1nnc(NC2=NCCCCC2)s1 > 76.9 µM, O=C(CN1CCN(CC(=O)c2ccc(F)cc2)CC1)Nc1ccccc1Cl > 76.9 µM, CCOc1ccc2[nH]c(=O)c(CN(Cc3nnnn3CCc3ccccc3)CC3CCCO3)cc2c1 (stereo unspecified), CS(=O)(=O)N1CCCC(C(=O)N2CCOCC2)C1 (stereo unspecified) > 76.9 µM, O=C1Nc2ccccc2C12OCCCCO2 > 76.9 µM, CC1(C)CC(NC(=O)C2CCCCC2C(=O)O)CC(C)(C)N1 (stereo unspecified) > 76.9 µM, N#CC(C#SN)=C1CCCCC1 > 76.9 µM, CCS(=O)(=O)N1CCN(c2ccccc2F)CC1 > 76.9 µM, CCCCCCn1ccc(=N)cc1 > 76.9 µM, COc1cccc2cc(C(=O)NC3CC(C)(C)NC(C)(C)C3)c(=O)oc12 > 76.9 µM, COc1ccccc1-c1nnc(SCC(=O)OC(C)C)o1 > 76.9 µM, Fc1ccc(Cn2nnnc2CN2CCN(C3CCCCC3)CC2)cc1 > 76.9 µM, COCCCN(Cc1ccccn1)S(=O)(=O)Cc1ccccc1 > 76.9 µM, Cc1occc1-c1nnc(SCC(=O)N2c3ccccc3CCc3ccccc32)n1C > 76.9 µM, Cc1noc(C)c1CSc1nc2ccccc2[nH]1 > 76.9 µM, O=C1CC(c2ccc(F)cc2)CC(O)=C1C=NCCN1CCN(C(=O)Nc2ccccc2)CC1 (stereo unspecified) > 76.9 µM, O=C(COc1ccc(S(=O)(=O)N2CCCC2)cc1)NCc1ccco1 > 76.9 µM
